# Experimental data from the supplement of paper PMC11417369.
# ± gives the standard deviation of the averaged measurements. The list shows a part of the results.
# Test system: PfAP2-G AP2 domain (GST-tagged)
# Experiment: gcPBM binding intensity (ln(normalized median fluorescence intensity)); higher = stronger DNA binding
# Outline: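 Binding intensity is the highest Masliner-normalised natural-log median intensity over replicate spots in either probe orientation. To obtain it, GST-tagged P. falciparum DNA-binding domains made in E. coli were incubated for 1 h on an Agilent 4 × 180k array of primer-extended double-stranded 36-bp intergenic genomic probes plus negative controls. Detection used Alexa488 anti-GST antibody with scanning at 488 nm.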
row,Sequence,gcPBM binding intensity (ln)
1,CTTTTTAATTTATCGACACACGCATGAATAGAAATT [CACACA_site9112],10.2 ± 0.28
2,CATATAAACAATAACACACACCTAGGTACATGGAAA [CACACA_site4615],10.9 ± 0.48
3,AAAGCAAATAATAAGTGTACGGGTCAATATATGCGT [XGTACX_site1519],11.3 ± 0.73
4,ATTATATATAAACACACACACATGCATGCACATATA [CACACA_site4237],10.06 ± 0.021
5,CATAAACTTTATAACACACACTTATAAATATAAATA [CACACA_site6646],10.1 ± 0.17
6,TATCACATATTATGATGTACAAGGATTCTGACTAAT [XGTACX_site1196],10.8 ± 0.4
7,TTTATTTATCTGAACACATGCAGACAAATAACATAT [TGCATGCA_site929],10.2 ± 0.19
8,ATATATTTTGTTATGGTGCGTAAGAAATATATTCTT [GTGCAC_site9825],10.2 ± 0.28
9,GATCTTTAAATTTATTGTACATAAATGTATATGTTA [XGTACX_site1107],10.9 ± 0.59
10,GTTATAAAATATGGCACACAAAATGTAAGTAAATGA [CACACA_site1458],10.5 ± 0.2
11,TTGTTGATTGTTATTTATCATTAGATGTAAAATATG [CACACA_negctrl_site927],10.2 ± 0.12
12,TCTTTTAAACAGTACACACACACATATATATATATA [CACACA_site924],11.2 ± 0.69
13,AATATTTTTTTATAAACACACATATAAATAAATATA [CACACA_site7622],9.945 ± 0.021
14,TATATATTATAAAATAGTACACAGAATTTAAATATA [XGTACX_site100],11.4 ± 0.83
15,TATATATAGAAACACACACACATATATATATATTTT [CACACA_site2540],9.83 ± 0.13
16,ATTGTGCACTTATATGCACACATTTTAGTTTTTTTT [CACACA_site2028],10.4 ± 0.34
17,ATATCTATAATAAACACACACATATACCTATAGGTA [CACACA_site7596],9.85 ± 0.057
18,GGGCATATAATATAAAGTACAGGACTATAAAAATAT [XGTACX_site4481],11.2 ± 0.8
19,TATTATATGTATTGCACACCTTCAACAACTACTTCT [CACACA_site655],10.29 ± 0.092
20,TATACATTTTTATAAAGTACACAAAAATAAATATAA [XGTACX_site1647],11.5 ± 0.95
21,ATTAAATATATGATGTGTACATATTCGTGTATGTTT [XGTACX_site2141],11.4 ± 0.71
22,AAACAGAATACATATACACACATACAAAAAAGTGCA [CACACA_site8235],10.2 ± 0.3
23,AAAATAAATTTTTATGTTATATATACAATTTCTCTA [CACACA_negctrl_site1760],9.44 ± 0.17
24,AATGCTATCTTCTTATTTTTCATACACAACATGAAC [CACACA_negctrl_site1809],10.2 ± 0.11
